# Experimental data taken from the supplement of paper PMC11417369.
# The list shows a part of the results.
# System: PF3D7_0420300 AP2 domain 1 (GST-tagged)
# Experiment: gcPBM binding intensity (ln(normalized median fluorescence intensity)); higher = stronger DNA binding
# Outline: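 For binding intensity, the highest Masliner-normalised natural-log median intensity across replicate spots of either probe orientation was taken. Protein bound to the array was stained with Alexa488 anti-GST antibody and scanned at 488 nm. The protein, GST-tagged P. falciparum DNA-binding domains from E. coli at about 25 μg on average, had been applied for 1 h to an Agilent 4 × 180k array of primer-extended double-stranded 36-bp intergenic genomic probes and negative controls.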
row,Sequence,gcPBM binding intensity (ln)
1,ATATATATATATATATGTACTGAATAAAGAACAAAA [XGTACX_site5400],9.25
2,TTATTTTTGTTCATAGTGCATAGAATTTATACATAT,9.3
3,TTTTTTTTATGGTACACACACGCGTATGGTTGCACG [CACACA_site1877],9.65
4,ATAGACAGCGCACAAACACACAAACACAGACCCCCA [CACACA_site4409],9.95
5,ATTTATTTATTGGCACGTACAAATTTGTGTTTTCCA [XGTACX_site6978],9.31
6,TTTTTTTCTTTTCAAACACACAATTGGTATATATCA [CACACA_site7542],9.32
7,TTGTAAATTTCTGGTTATATATTTTATGTATATGTT [CACACA_negctrl_site1443],9.59
8,AAAGAAATGAAATATACACACATACATAAATACATA [CACACA_site6081],9.92
9,ATAAAGGAAATTACAAGTACAAATAAGATAAAATAA [XGTACX_site4514],9.51
10,AATTATATATTATAATGTACATATATATAACTATAC [XGTACX_site1865],9.27
11,ATATATTTAAACTACACACGCATATCTTAGAAATAA [CACACA_site1272],9.5
12,TATAAAAAAAGAGGAGGGATGGTATACTTGTGGTTT [TGCATGCA_negctrl_site49],9.5
13,TGTATATATAAACATGCACACGTGGTTGTATATATA [CACACA_site9078],9.4
14,AGAATTCGTTTAAAAAGTACATTCAATTTAATAATG [XGTACX_site6603],8.93
15,TGTAGTCTGGAGAAGAGTACACAGTATCTGGTAACA [XGTACX_site2038],8.91
16,TAGTATTAAAATATTTGTACTTATATGTATTATATA [XGTACX_site538],9.18
17,AATATTTTAAAAAAAAGTACATTATATATATATGTT [XGTACX_site8073],9.18
18,TCTTTGTAAATTTCTTGTACGTAAATTTTTTTTAGG [XGTACX_site7062],9.11
19,TCATAGTATAGACACACACACACACGCATATAAATA [CACACA_site6915],10.2
20,TATTTTACATCTTCTCACATTTTATCACTTTTTAAA [CACACA_negctrl_site330],9.23
21,TACTTACCAAAATACACACACACACTAGATATATAA [CACACA_site5096],10.3
22,TATATATCATATGATACATGCAACAAAATGCATAAT [TGCATGCA_site205],9.25
23,ATGTATATTACTCATTGTACTTATATTTTCTTATTA [XGTACX_site8897],9.59

row,Sequence,gcPBM binding intensity (ln)
1,ATTTTATATCTGGATAGTACTTTAATATTTCAAATG [XGTACX_site7304],9.21
2,GTATTTATAAATTATAGTACTTTGCGTATCATATAT [XGTACX_site7358],9.32
3,GGATATTCATTAACCACACACACAAAAAAAATAAAA [CACACA_site3800],9.92
4,ATGGATTATACGTGCACACATATATACAAATAAATA [CACACA_site640],9.52
5,ACCATTTGTAGGTAAACACACATTATTATTAATATC [CACACA_site2635],9.45
6,TAAAATGCAATCTGAACACACATATTTTTTTAATAT [CACACA_site6922],9.22
7,TACATCATACGAACAGTGCATATTATTATTGTTCTG,9.31
8,ATAAGGAAGGGATGCACACAAAAGGGTACATAAGAA [CACACA_site4006],9.82
9,TTTGAATCCTTATATACACACATTATAAAATATTAT [CACACA_site6406],9.38
10,TATTTGTAAATCGATACACACATATAGATTAATATA [CACACA_site6237],9.36
11,TTATATTATACATACACACCCATATAATATGTTTTT [CACACA_site4636],9.53
12,TTGTTTTTGTTCTTGGGTACTTAAATTATAAATGAT [XGTACX_site113],9.45
13,TCTTATGAATATCCCCGTACACATATATTTCTTATA [XGTACX_site6877],9.45
14,AGCTACACACCACAATGTACATAAATATATATGTGA [XGTACX_site1483],9.43
15,AGAATATTTAATTCAACACACATACATATTTATTAA [CACACA_site5318],9.37
16,TATTGTATATACTATACACACACATACATACATACA [CACACA_site8172],9.8
17,ATATATTTATATAAATGTACATACAGCACATTTATA [XGTACX_site4725],9.08
18,CAAATATACATATGTAGTACATGTTGTAGATAATTT [XGTACX_site2790],9.31
19,TACTTTATATAAAGATCAAAAAATAAATAATTATAA [TGCATGCA_negctrl_site446],8.95
20,GAAGCCCTATGAAAAGTGCGGTTCATGAACAAAGAA [GTGCAC_site9828],9.23
21,GGATAATATATTAGAACACACATATAGATGTAAAAA [CACACA_site6229],9.46
22,AGAATAAGAATTATTAGTACTTATAAATATTATATT [XGTACX_site7228],9.18
23,TAATTTAAAATATATAGTACACACGTGAACACAAAT [XGTACX_site792],9.49

row,Sequence,gcPBM binding intensity (ln)
1,CTATTACATTAAATGTGTACATATATATATATATAT [XGTACX_site5233],9.21
2,GTAAATACACATATGTGTACATATATATATATATAT [XGTACX_site3696],9.44
3,GTGGCTACTATATATTGTACGATATTATATATATAC [XGTACX_site8376],9.32
4,GGTTCATTAAAGTGTACACATAAATACCGTAACATT [CACACA_site6002],9.31
5,CTAAGGTATGATTAATCACACACATAAATATATATA [CACACA_site8847],9.44
6,ACCATATAAATAAACACACACACACCCATATATATA [CACACA_site2321],10.2
7,TATATATCTATATTTACACACAGTTACTATGTAGAT [CACACA_site7532],9.54
8,GTTAAACTTAATATCGGTACACACACAAGATAAGAA [XGTACX_site1660],9.92
9,ATAATATGTATAATCACACATTTTTCTTTTAAGACA [CACACA_site5297],9.13
10,GTAAGAATATTTATAAATGTATAATTTGTATTATTT [GTGCAC_negctrl_site667],9.22
11,ATCGAAATTTTAGAATATATATGATGTTACTTAAGT [GTGCAC_negctrl_site611],9.11
12,TAAAATATCATAGATAGTACATATAACGTTTTATAT [XGTACX_site5666],9.26
13,CATGACATAAAAAATATACACACTATAATATATATA [CACACA_site1402],9.51
14,AAATATATTATATTTAGTACGCATATATAATATGCA [XGTACX_site4835],8.94
15,ATGAAAATTTATATTGCACACATAGGGAATAAAAAA [CACACA_site8667],9.46
16,AGTTAATTAATAGGCACACATATATATGTATAAATA [CACACA_site523],9.41
17,ATATATATACATATAACACACACATATATATATATA [CACACA_site8827],9.58
18,TTGTATTTATTTATGGGAGGATTATAATCATTGTAG [GTGCAC_negctrl_site268],9.18
19,TAATTCACATTTTATACACACATTCGAACCTTTTTT [CACACA_site3341],9.62
20,TATAGATATATACGGTGTACATACATAAAAAAAAAA [XGTACX_site1648],9.27
21,ATTTTTATTAGTTATTGTACTTATTATTTATTAATT [XGTACX_site2568],9.58
22,TATAGTCAACTAGTCACACATATAATTATATATATA [CACACA_site5872],9.22
23,TATAAAGAAATCATTACACACAAATAAATACATACA [CACACA_site2675],9.88

row,Sequence,gcPBM binding intensity (ln)
1,TATTTTTTTTGTCATATATAAGAAACGCTCTTCTTT [TGCATGCA_negctrl_site127],9.07
2,ATATTTATATTTTCATGTACGTATTTTTATATATAT [XGTACX_site8478],9.65
3,TGCATTATATTAAATTTTTTATTTGTTGATGTTATA [GTGCAC_negctrl_site371],9.25
4,TGAAATAAAATTTGTACACACATATTTATTTATATA [CACACA_site6421],9.28
5,AAATAAAAGATATTTTTACACACTTTTGATGAGATC [CACACA_site9000],9.23
6,CACAAGAAAATTCACACACACACATATATATATATA [CACACA_site3880],9.98
7,TCCTTAATTCAAAAAATAATATCTTATATTTCAAAT [CACACA_negctrl_site1592],8.72
8,GGAATAAAGACAGCACGTACATATCTTACGAAGCTC [XGTACX_site3918],9.28
9,GGTTAGACGAAATATACATGCAATGGAAAATAAGTT [TGCATGCA_site23],9.48
10,ATATTAATTTCTCATGCATGTTCTTCCCAATTGTAA [TGCATGCA_site425],9.45
11,TCATCATGTATGTACACACATACATATATTATGTAC [CACACA_site1386],9.44
12,CTTTTTGAAATATTAACACACATTTTGTTAATGAAT [CACACA_site6087],9.23
13,TATAAGTAGATAAGGGTGCACAATATAAATATATAG,9.51
14,TTGTACATCTTTTGCACACGTAATGTTATTAAAATA [CACACA_site4827],9.35
15,TGTATATTTGTTGTTACACACATATATTTTTTTTTT [CACACA_site128],9.55
16,TTAACTATAATAAAATGTACATATGTAACATATATA [XGTACX_site7790],9.18
17,AGGTCCTACACCAATAAATATCATATATATATTATA [CACACA_negctrl_site568],9.19
18,TTATAACAAAAAATTAAAGAAAGAGAATAAGTGAAA [CACACA_negctrl_site975],9.43
19,TATGGAAGAAAATATACACACAAAAAAAAAAAATGG [CACACA_site4924],9.96
20,ATGATTTTTTTTATTTTTTAGCTAGAGCTAGCTTAT [CACACA_negctrl_site433],9.01
